Results taken from PubChem BioAssay AID434955 (Southern Research Specialized Biocontainment Screening …, 2010).
The other results are listed elsewhere or left out. Shown are side measurements of this screen, not its main read-out; they come without a call. Most of these compounds were active or inconclusive in the main read-out, so they are no random draw.

Experiment: beta-lactam sensitization of Mtb H37Rv, H37Rv (AID 434955);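 note: growth measured after seven days incubation then overnight dye step; 0% = bacteria only wells and 100% = bacteria with antibiotic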
Conditions: M. tuberculosis H37Rv growth with meropenem, percent inhibition; measured here: primary screen without meropenem; at 25 µM

Compound	inhibition [%]
CCOC(=O)c1sc(NC(=O)Cn2nnc3sc4c(c3c2=O)CCC(C(C)(C)C)C4)nc1C (stereo not drawn)	46.5
CCN(CC)c1nc2ccccc2[nH]1	-2.41
CCOC(=O)C1CCN(C(=O)CN(c2cc(Cl)ccc2OC)S(=O)(=O)c2ccccc2)CC1	-10.3
COc1ccc(C(=O)N(C)C2CCCCC2)cc1OC1CCN(C(C)C)CC1	1.56
N#C/C(=C/c1cn(-c2ccccc2)nc1-c1cccc(OCc2ccccc2)c1)C(=O)NCCCn1ccnc1	99.6
COc1cc(/C=N/n2c(COc3ccccc3)n[nH]c2=S)cc(Br)c1O	5.74
CC(/C=C/c1ccc(N(C)C)cc1)=N\N=C(/N)SC1CC(=O)N(c2ccc(C(=O)O)cc2)C1=O (stereo not drawn)	-11.3
CC(C)(C)c1ccc2c(c1)OC(C(=O)N/N=C\c1ccc[nH]1)CO2 (stereo not drawn)	-1.09
CC(=O)O[C@]1(C(C)=O)CCC2C3CCC4=C/C(=N/OCC(=O)O)CC[C@]4(C)C3CC[C@@]21C (stereo partly drawn)	5.51
CCCCCn1c(=O)c(C(=O)NCc2ccncc2)c(O)c2ccccc21	55
Cc1ccc(S(=O)(=O)N2CCOCC2)cc1NC(=O)C1=NN(c2ccccc2)C(=O)CC1	2.31
Cc1ccc(S(=O)(=O)N2CCN(C(=O)CCn3cncn3)CC2)cc1	-2.46
COc1ccccc1OCCn1cc(/C=N/n2cnnc2)c2ccccc21	2.07
CCOc1ccc(CCNC(=O)CN2C(=O)c3cccnc3Oc3ccc(Cl)cc32)cc1	5.78
CCCCC(=O)Oc1c(S(=O)(=O)c2ccccc2)c(C)nn1C(C)(C)C	12.4
CCNc1nc(SCCOc2ccc(C)cc2)nc(N(C)C)n1	-0.99
[N-]=[N+]=NC(c1ccccc1)c1nc2ccccc2[nH]c1=O (stereo not drawn)	-0.58
Cc1ccc(S(=O)(=O)N(CC(=O)N/N=C/c2ccco2)Cc2ccccc2)cc1	-14.5
COc1ccc(-n2c(Cc3cccn3C)nnc2SCC(N)=O)cc1	-6.05
COc1ccc2oc(C(=O)OCC(=O)NC3CC3)c(C)c2c1	19.3
CCOC(=O)c1ccc(NC(=S)N(CCCN(CC)CC)Cc2ccco2)cc1	-5.17
COc1cccc(CN(C)C(=O)CC2C(=O)NCCN2C2Cc3ccccc3C2)c1 (stereo not drawn)	2.26
O=C(Nc1ccnn1C1CCN(C/C=C/c2ccccc2)CC1)c1ccccc1Cl	4.2
Cc1ccc(S(=O)(=O)N(CC(=O)N(C(C)C)C(C)C)C(=O)N2CCN(C)CC2)cc1	-8.76
CC(C)C(=O)Nc1ccc2c3c(cccc13)CC2	20.1
O=C(Nc1nnc(-c2ccco2)o1)c1ccc(S(=O)(=O)N2CCOCC2)cc1	14.1
COc1ccc2oc(=O)c(-c3nc(C)cs3)cc2c1	-1.49
O=c1c2cc(N3CCOCC3)ccc2[nH]c(=S)n1Cc1ccco1	-6.51
